Test results: PubChem BioAssay AID686978 (National Center for Advancing Translational Sciences (NCATS), 2013)
Values joined by “and” are separate entries in the source; they are usually repeats but may differ in a detail not shown here. Identical values can stand only once. About 64,000 (15%) of roughly 420,000 compounds were called active. Inconclusive means that the source gave no clear call. Such entries were picked first, then a sample of the others. The call rests on the fitted dose curve; in most records, active means well fitted inhibition curve with a large enough effect; inconclusive means small, poorly fitted or top-dose-only effect; inactive means flat fitted curve, though single readings scatter. Potencies of inconclusive entries are left out as doubtful fits.

Assay: qHTS for Inhibitors of human tyrosyl-DNA phosphodiesterase 1 (TDP1): qHTS in cells in absence of CPT; further: nearly all actives have a fitted effect of over 55% in size
Conditions: DT40 Tdp1-/- hTDP1 cells, no CPT, ATP luminescence, 48 h; activity change, negative = growth inhibition: at 46.2 µM (top of the series) unless noted
In short: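 Compound effects on proliferation are scored in DT40 Tdp1-/-;hTDP1 cells in the absence of CPT. ATP levels (CellTiter-Glo luminescence) are recorded after a ≥48 hr, 37 °C incubation.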
On the % scale 0 is the no-effect control and ±100 the full control effect; potency means the concentration at half of the fitted maximal effect; tags describe the fitted curve by direction and shape.

SMILES	activity change, negative = growth inhibition	Potency
O=C(O)C(C(O)c1ccc([N+](=O)[O-])cc1)[n+]1ccccc1 (stereo not drawn)	inactive: -5.48%	
O=[n+]1c2c(n([O-])c3ccccc31)CCC2	inactive: -4.83%	
COc1ccc(-c2nnc(SCC(=O)NC3CCCCC3)nc2-c2ccc(OC)cc2)cc1		inconclusive [inhibitor, single point]
CCCc1cc(C(=O)N2CCCC(C(=O)c3cc(C)c(OC)c(C)c3)C2)n(C)n1 (stereo not drawn)	inconclusive: -35.5% [inhibitor]	
C=CCCCCCCCCC(=O)NNC1=CC(=O)CC(C)(C)C1	inactive: -34.1%	
COc1ccc(-c2csc(/C(C#N)=C\c3ccc(O)c([N+](=O)[O-])c3)n2)cc1OC		inconclusive [inhibitor, single point]
Cc1ccc(Cl)c2c1NC(=O)C2(O)CC(=O)c1ccccc1O (stereo not drawn)		inconclusive [inhibitor, single point]
CCOc1ccc(Nc2nnc(-n3nc(C)cc3C)c3ccccc23)cc1	inactive: 2.49%	
O=c1[nH]c(Cc2ccccc2)nc2scc(-c3ccccc3)c12		inconclusive [inhibitor, single point]
Cc1cccc(-n2ccnc2SCC(=O)Nc2cccc3ccccc23)c1C		active: 16.4 µM
CC(=O)Oc1c(Sc2ccccc2[N+](=O)[O-])c(C)nn1C(C)(C)C		inconclusive [inhibitor, single point]
CCOc1ccc(NC(=O)CSc2nc3nc4c(cc3c(=O)n2CC)COC(C)(C)C4)cc1		inconclusive [inhibitor, partial curve]
COc1ccc(NC(=O)c2cccc(NC(=O)c3ccccc3)c2)c(OC)c1		inconclusive [inhibitor, single point]
CCc1cc(=O)oc2cc(C)cc(OCC(=O)NCc3ccncc3)c12	inactive: 8.63%	
Cc1ccc(NC(=O)CN2CCN(S(=O)(=O)c3cccs3)CC2)cc1S(=O)(=O)N(C)C		inconclusive [inhibitor, single point]
CCn1c(=O)c(C(=O)NNS(=O)(=O)c2ccc(Cl)cc2)c(O)c2ccccc21		inconclusive [inhibitor, single point]
Cc1nn(-c2ccccc2)c(C)c1/C=N/NC(=O)CSc1nnc(-c2ccccc2)n1-c1ccc(Cl)cc1		active: 25.9 µM
O=C(CSc1nc(O)c(C2CCCCC2)c(=O)[nH]1)N1CCOCC1	inactive: 1.35%	
COc1cc2ncnc(NCc3ccco3)c2cc1OC		inconclusive [inhibitor, partial curve, poor fit]
Cc1noc(C)c1CSCC(=O)NCCN1C(=O)S/C(=C\c2ccccc2F)C1=O		inconclusive [inhibitor, single point]
Cc1nc2c(C)cccn2c1C(=O)N/N=C/c1ccccc1[N+](=O)[O-]		inconclusive [inhibitor, single point]
Cc1ccc2nc(-c3ccccn3)c(NC3CCCC3)n2c1		active: 0.326 µM
Cc1sc(Cc2nc(O)cs2)nc1-c1ccccc1	inactive: -27.4%	
COc1ccc(C(CCNCc2ccc(F)cc2)c2ccc(F)cc2)cc1 (stereo not drawn)		inconclusive [inhibitor, single point]
Cc1c(C(=O)Nc2ccc3c(c2)OCCO3)oc2ccc(Br)cc12	inactive: 2.9%	

SMILES	activity change, negative = growth inhibition	Potency
CC(C#N)(NC(=O)CN1CCN(S(=O)(=O)c2ccccc2C#N)CC1)C1CC1 (stereo not drawn)	inactive: -26.7%	
COC(=O)c1c(C)oc2ccc(N(C(=O)c3ccncc3)S(=O)(=O)c3c(C)cc(C)cc3C)cc12		active: 1.16 µM
Cc1ccc(S(=O)(=O)N(C)C)cc1NC(=O)COC(=O)c1ccc(Cl)cc1	inactive: -8.25%	
O=C(CSc1nnc(SCc2ccc(Cl)cc2)s1)c1ccc2c(c1)OCO2	inactive: 2.02%	
CN1CCc2nc3sc(C(=O)Nc4ccccc4OC(F)(F)F)c(N)c3cc2C1		inconclusive [inhibitor, single point]
O=C(NCc1ccccc1)c1nc(S(=O)(=O)Cc2ccccc2)ncc1Cl		active: 1.16 µM and active: 2.31 µM
CCCCNCCCOc1cccc(Cl)c1Cl		inconclusive [inhibitor, partial curve, poor fit]
Cc1ccc(S(=O)(=O)NCc2ccc(C(=O)NC3CC3)cc2)cc1	inactive: 1.64%	
CN1CCN(CCC(=O)Nc2ccccc2)CC1	inactive: -5.19%	
Cc1ccc(C)c(OCCCNCc2ccccc2)c1		inconclusive [inhibitor, single point]
CC1=C(C(=O)OCc2ccccc2)C(c2ccc3c(c2)OCO3)NC(=O)N1CCCC(=O)O (stereo not drawn)		active: 0.146 µM
Cc1cccn2c(=O)c3cc(C(=O)NCc4cccnc4)c(=N)n(CCCO)c3nc12	inactive: -13.2%	
Cc1ccccc1CN1CCCOCCS1(=O)=O		inconclusive [inhibitor, single point]
O=C(c1ccco1)N1CCC2(CCN(Cc3nccs3)CC2)CC1	inactive: -12.7%	
Cc1cc(C)cc(Cn2cc(CN3CC(N4CCN(CCN(C)C)CC4)CS3(=O)=O)nn2)c1 (stereo not drawn)	inactive: -13.2%	
CCN(CC(=O)Nc1cc(Cl)ccc1C)C(=O)C1CC(=O)N(Cc2ccccc2)C1 (stereo not drawn)	inactive: -10.1%	
COc1ccc(-n2c(=O)c(-c3ccc(Cl)cc3)nc3cncnc32)cc1	inactive: -4.38%	
CSc1cccc(NC(=O)CN2C(=O)COc3ccc(S(=O)(=O)N4CCOCC4)cc32)c1		inconclusive [inhibitor, partial curve]
Cc1sc2ncn(CC(=O)N3CCN(c4ccc(Cl)cc4)CC3)c(=O)c2c1S(=O)(=O)N1CCN(c2ncccn2)CC1		inconclusive [inhibitor, single point]
CCOC(=O)C1(C)CCCN(C(=O)c2cccc(C#N)c2)C1 (stereo not drawn)	inactive: 2.11%	
COc1ccccc1NC(=S)N(CCc1c(C)[nH]c2ccccc12)Cc1cccs1		inconclusive [inhibitor, single point]
Cc1cc(C)cc(NC(=S)NCc2ccc3c(c2)OCO3)c1		inconclusive [inhibitor, single point]
CCOc1ccc(-n2nc3c(=O)n(CCN4CCCCC4)nc(C)c3c2C)cc1	inactive: 2.41%	
CCCCCCCCCC(=O)N1c2ccccc2NC(=O)C1CC(=O)Nc1ccc(C(=O)O)cc1 (stereo not drawn)	inactive: 5.38%	
CCNC(=O)COc1ccc(/C=C2\COc3ccccc3C2=O)cc1OC		active: 13 µM

SMILES	activity change, negative = growth inhibition	Potency
Cc1c(C#N)c2ncn(Cc3ccccc3)c(=O)c2n1-c1ccccc1	inactive: -22.4%	
CCN(C(=O)N(CC)c1ccccc1)c1ccccc1		inconclusive [inhibitor, single point]
O=c1oc2ccccc2n1Cc1ccccc1Cl		inconclusive [inhibitor, partial curve]
COc1cc2nc(N3CCCCC3)nc(NC3CC3)c2cc1OC		active: 15.8 µM
O=C(Nc1cccc2ncccc12)C(c1ccccc1)c1ccccc1		inconclusive [inhibitor, partial curve]
CC(=O)Nc1cc(-c2cccc(F)c2)cn2c(-c3ccccc3)cnc12		inconclusive [inhibitor, single point]
O=C(Cn1c(=O)c2cccn2c2ccc(F)cc21)NCCCN1CCN(c2ccccc2F)CC1		inconclusive [inhibitor, single point]
COC(=O)c1ccc2nc(C3CCCCC3)c(CC(C)(C)C)n2c1		inconclusive [inhibitor, single point]
CC(C)(Oc1ccc(Cl)cc1)C(=O)OCC(=O)NCCc1ccc(S(N)(=O)=O)cc1	inactive: -6.13%	
Cc1cc(C(=O)CSc2nc3ccccc3n2C)c(C)n1C		inconclusive [inhibitor, single point]
CCCCC(=O)NC(=S)Nc1ccccc1N1CCCCC1	inconclusive: -16.1% [inhibitor]	
CN(Cc1ccon1)C(=O)c1cnn(-c2ncc3c(n2)-c2ccccc2CCC3)c1C1CC1		inconclusive [inhibitor, single point]
CCCCN1C(=O)C(CC(=O)NCCN2CCOCC2)CC(C(=O)N2CCOCC2)=C1C (stereo not drawn)	inactive: -9.25%	
O=C(Nc1ccc(F)cc1F)c1csc(-c2ccncc2)n1	inactive: -4.84%	
CC(C)(C)c1ccc(C(=O)N2CCN(c3ccc(N4CCOCC4)nn3)CC2)cc1		inconclusive [inhibitor, partial curve]
Cc1ccc(-n2ncc3c(=O)[nH]c(SCC(=O)N4CCN(c5ccccc5)CC4)nc32)cc1		inconclusive [inhibitor, partial curve]
COc1ccc(Cn2c(=O)[nH]c3cc(C(=O)N4CCN(c5ccccc5OC)CC4)ccc3c2=O)cc1		active: 23.1 µM
Cc1ccc(S(=O)(=O)NC(C(=O)Oc2cc3oc(=O)cc(C)c3cc2Cl)C(C)C)cc1 (stereo not drawn)		inconclusive [inhibitor, partial curve, poor fit]
Cc1nc(SC(C)C)[nH]c(=O)c1Cc1ccccc1		inconclusive [inhibitor, single point]
CCNc1nc(OC)nc(SCC(=O)Nc2ccccc2)n1		inconclusive [inhibitor, single point]
Cc1ccc2ccccc2c1C(O)c1ncc(-c2cccc(C(F)(F)F)c2)[nH]1 (stereo not drawn)		inconclusive [inhibitor, single point]
COc1ccc(NC(=O)Cn2c(=O)n(-c3ccc(C)cc3)c(=O)c3c2cnn3C)cc1		inconclusive [inhibitor, single point]
COc1ccc(-c2cc3nc(C4CCN(C(=O)OC(C)(C)C)CC4)c(C(=O)O)cn3n2)cc1		inconclusive [inhibitor, single point]
